# According to the supplement of paper PMC8728848:
# This is one part of the list.
# B1: MIC1 (Toxoplasma gondii), O00834 (protein)
# chain: VGPEAYGEASHSHSPASGRYIQQMLDQRCQEIAAELCQSGLRKMCVPSSRIVARNAVGITHQNTLQWRCFDTASLLESNQENNGVNCVDDCGHTIPCPGGVHRQNSNHATRHEILSKLVEEGVQRFCSPYQASANKYCNDKFPGTIARRSKGFGNNVEVAWRCYEKASLLYSVYAECASNCGTTWYCPGGRRGTSTELDKRHYTEEEGIRQAIGSVDSPCSEVEVCLPKDENPPLCLDESGQISRT
# Columns and labels:
# Assay in all cases: glycan array binding signal (z-score within array); higher = stronger binding
# Conditions in all cases: glycan notation: IUPAC condensed, linker removed
# [1] = molecular target: Gal(b1-4)GlcNAc(b1-3)Gal(b1-4)GlcNAc(b1-3)Gal(b1-4)Glc
# Method in brief: (§1)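 Columns mapping to the same glycan were averaged after glycan names were converted to IUPAC-condensed notation. The data come from 3228 arrays in the Consortium for Functional Glycomics database, limited to those with an available protein sequence. Binding is reported as a within-array Z-score averaged across arrays of one protein sequence and across linkers.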
# [2] = molecular target: Gal(b1-4)GlcNAc(b1-3)[Fuc(a1-3)[Gal(b1-4)]GlcNAc(b1-6)]Gal(b1-4)Glc
# Method in brief: as §1
# [3] = molecular target: Gal(b1-4)GlcNAc(b1-3)[Gal(b1-4)GlcNAc(b1-6)]Gal(b1-4)Glc
# Method in brief: as §1
# [4] = molecular target: Gal(b1-4)GlcNAc(b1-3)[Gal(b1-4)GlcNAc(b1-6)]Gal(b1-4)GlcNAc(b1-3)Gal(b1-4)Glc
# Method in brief: as §1
# [5] = molecular target: Gal(b1-4)GlcNAc(b1-3)[Gal(b1-4)GlcNAc(b1-6)]Gal(b1-4)GlcNAc(b1-3)[Gal(b1-4)GlcNAc(b1-6)]Gal(b1-4)GlcNAc(b1-3)Gal(b1-4)Glc
# Method in brief: as §1
# [6] = molecular target: Gal(b1-4)GlcNAc(b1-3)[Gal(b1-4)GlcNAc(b1-6)]Gal(b1-4)GlcNAc(b1-3)[Gal(b1-4)GlcNAc(b1-6)]Gal(b1-4)GlcNAc(b1-3)[Gal(b1-4)GlcNAc(b1-6)]Gal(b1-4)GlcNAc(b1-3)Gal(b1-4)Glc
# Method in brief: as §1
# [7] = molecular target: Gal(b1-4)GlcNAc(b1-3)[Gal(b1-4)GlcNAc(b1-6)]Gal(b1-4)GlcNAc(b1-3)[Gal(b1-4)GlcNAc(b1-6)]Gal(b1-4)GlcNAc(b1-3)[Gal(b1-4)GlcNAc(b1-6)]Gal(b1-4)GlcNAc(b1-3)[Gal(b1-4)GlcNAc(b1-6)]Gal(b1-4)GlcNAc(b1-3)Gal(b1-4)Glc
# Method in brief: as §1
# Gal(b1-6)GalNAc = molecular target: Gal(b1-6)GalNAc
# Method in brief: as §1
# [8] = molecular target: Gal3S(b1-3)GalNAc(b1-4)Gal3S(b1-4)Glc
# Method in brief: as §1
# [9] = molecular target: Gal3S(b1-3)[Fuc(a1-4)]GlcNAc
# Method in brief: as §1
# [10] = molecular target: Gal3S(b1-3)[Fuc(a1-4)]GlcNAc(b1-3)Gal(b1-4)Glc
# Method in brief: as §1
# Gal3S(b1-4)Glc = molecular target: Gal3S(b1-4)Glc
# Method in brief: as §1
# Gal3S(b1-4)GlcNAc = molecular target: Gal3S(b1-4)GlcNAc
# Method in brief: as §1
# [11] = molecular target: Gal3S(b1-4)GlcNAc(b1-3)Gal
# Method in brief: as §1
# [12] = molecular target: Gal6S(b1-3)[Fuc(a1-4)]GlcNAc(b1-3)Gal(b1-4)Glc
# Method in brief: as §1
# GalNAc(a1-3)Gal(b1-4)Glc = molecular target: GalNAc(a1-3)Gal(b1-4)Glc
# Method in brief: as §1
# GalNAc(a1-3)GalNAc = molecular target: GalNAc(a1-3)GalNAc
# Method in brief: as §1
# GalNAc(b1-4)Gal(b1-4)Glc = molecular target: GalNAc(b1-4)Gal(b1-4)Glc
# Method in brief: as §1
# [13] = molecular target: GalNAc(b1-4)Gal3S(b1-4)Glc
# Method in brief: as §1
# [14] = molecular target: GalNAc3S(b1-4)Gal3S(b1-4)Glc
# Method in brief: as §1
# Glc(a1-2)Glc = molecular target: Glc(a1-2)Glc
# Method in brief: as §1
# [15] = molecular target: Glc(a1-2)Glc(a1-3)Glc(a1-3)Man(a1-2)Man(a1-2)Man(a1-3)[Man(a1-3)[Man(a1-6)]Man(a1-6)]Man(b1-4)GlcNAc
# Method in brief: as §1
# Glc(a1-3)Glc = molecular target: Glc(a1-3)Glc
# Method in brief: as §1
# [16] = molecular target: Glc(a1-3)Glc(a1-3)Man(a1-2)Man(a1-2)Man(a1-3)[Man(a1-2)Man(a1-3)[Man(a1-2)Man(a1-6)]Man(a1-6)]Man(b1-4)GlcNAc(b1-4)GlcNAc
# Method in brief: as §1
# [17] = molecular target: Glc(a1-3)Glc(a1-3)Man(a1-2)Man(a1-2)Man(a1-3)[Man(a1-3)[Man(a1-6)]Man(a1-6)]Man(b1-4)GlcNAc
# Method in brief: as §1
# [18] = molecular target: Glc(a1-3)Man(a1-2)Man(a1-2)Man(a1-3)[Man(a1-2)Man(a1-3)[Man(a1-2)Man(a1-6)]Man(a1-6)]Man(b1-4)GlcNAc(b1-4)GlcNAc
# Method in brief: as §1
# Glc(a1-4)Glc = molecular target: Glc(a1-4)Glc
# Method in brief: as §1
# Glc(a1-4)Glc(a1-4)Glc = molecular target: Glc(a1-4)Glc(a1-4)Glc
# Method in brief: as §1
# [19] = molecular target: Glc(a1-4)Glc(a1-4)Glc(a1-4)Glc
# Method in brief: as §1
# [20] = molecular target: Glc(a1-4)Glc(a1-4)Glc(a1-4)Glc(a1-4)Glc
# Method in brief: as §1
# [21] = molecular target: Glc(a1-4)Glc(a1-4)Glc(a1-4)Glc(a1-4)Glc(a1-4)Glc
# Method in brief: as §1
# [22] = molecular target: Glc(a1-4)Glc(a1-4)Glc(a1-4)Glc(a1-4)Glc(a1-4)Glc(a1-4)Glc
# Method in brief: as §1
# [23] = molecular target: Glc(a1-4)Glc(a1-4)Glc(a1-4)Glc(a1-4)Glc(a1-4)Glc(a1-4)Glc(a1-4)Glc
# Method in brief: as §1
# [24] = molecular target: Glc(a1-4)Glc(a1-4)Glc(a1-4)Glc(a1-4)Glc(a1-4)Glc(a1-4)Glc(a1-4)Glc(a1-4)Glc
# Method in brief: as §1
# [25] = molecular target: Glc(a1-4)Glc(a1-4)Glc(a1-4)Glc(a1-4)Glc(a1-4)Glc(a1-4)Glc(a1-4)Glc(a1-4)Glc(a1-4)Glc
# Method in brief: as §1
# [26] = molecular target: Glc(a1-4)Glc(a1-4)Glc(a1-4)Glc(a1-4)Glc(a1-4)Glc(a1-4)Glc(a1-4)Glc(a1-4)Glc(a1-4)Glc(a1-4)Glc
# Method in brief: as §1
# [27] = molecular target: Glc(a1-4)Glc(a1-4)Glc(a1-4)Glc(a1-4)Glc(a1-4)Glc(a1-4)Glc(a1-4)Glc(a1-4)Glc(a1-4)Glc(a1-4)Glc(a1-4)Glc
# Method in brief: as §1
binder,measurement,setting,value
B1,glycan array binding signal (z-score),[1],-0.304
same,glycan array binding signal (z-score),[2],-0.312
same,glycan array binding signal (z-score),[3],-0.312
same,glycan array binding signal (z-score),[4],-0.288
same,glycan array binding signal (z-score),[5],-0.287
same,glycan array binding signal (z-score),[6],-0.287
same,glycan array binding signal (z-score),[7],-0.287
same,glycan array binding signal (z-score),Gal(b1-6)GalNAc,-0.299
same,glycan array binding signal (z-score),[8],-0.297
same,glycan array binding signal (z-score),[9],-0.312
same,glycan array binding signal (z-score),[10],-0.42
same,glycan array binding signal (z-score),Gal3S(b1-4)Glc,-0.312
same,glycan array binding signal (z-score),Gal3S(b1-4)GlcNAc,-0.287
same,glycan array binding signal (z-score),[11],-0.287
same,glycan array binding signal (z-score),[12],-0.461
same,glycan array binding signal (z-score),GalNAc(a1-3)Gal(b1-4)Glc,-0.302
same,glycan array binding signal (z-score),GalNAc(a1-3)GalNAc,-0.31
same,glycan array binding signal (z-score),GalNAc(b1-4)Gal(b1-4)Glc,-0.268
same,glycan array binding signal (z-score),[13],-0.287
same,glycan array binding signal (z-score),[14],-0.285
same,glycan array binding signal (z-score),Glc(a1-2)Glc,-0.307
same,glycan array binding signal (z-score),[15],-0.287
same,glycan array binding signal (z-score),Glc(a1-3)Glc,-0.287
same,glycan array binding signal (z-score),[16],-0.268
same,glycan array binding signal (z-score),[17],-0.287
same,glycan array binding signal (z-score),[18],-0.287
same,glycan array binding signal (z-score),Glc(a1-4)Glc,-0.31
same,glycan array binding signal (z-score),Glc(a1-4)Glc(a1-4)Glc,-0.312
same,glycan array binding signal (z-score),[19],-0.304
same,glycan array binding signal (z-score),[20],-0.287
same,glycan array binding signal (z-score),[21],-0.287
same,glycan array binding signal (z-score),[22],-0.287
same,glycan array binding signal (z-score),[23],-0.286
same,glycan array binding signal (z-score),[24],-0.287
same,glycan array binding signal (z-score),[25],-0.287
same,glycan array binding signal (z-score),[26],-0.287
same,glycan array binding signal (z-score),[27],-0.287
